# Data as given in the supplement of paper PMC10126150.
# Sequences with one replicate were seen in a single cluster, so their values are uncertain.
# Test system: ATP
# Test: switch fluorescence ratio, 500 uM ATP over buffer (Cy3 cluster intensity, sum of 5 cycles each) (fold (ratio)); higher = stronger signal-on switching upon ATP binding; sequences stand for … in TCGTCGGCAGCGTCAGATGTGTATAAGAGACAGTTTTTTTTTTTTTTTTTTTTTTTTT…TC
# Conditions: aptamer strand: ATP DNA aptamer (quencher-CACCTGGGGGAGTATTGCGGAGGAAGG + anchor), 100 nM annealed; ATP concentration: 500 uM; one replicate
# Summary of the method: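 Between each of five buffer/ATP cycles, the flow-cell was stripped with NaOH and re-annealed. Each cycle imaged Cy3-labelled switching-strand clusters, annealed to 100 nM quencher-labelled ATP aptamer on a modified Illumina MiSeq flow-cell, first in selection buffer and then after 15 min with 500 uM ATP at 22 °C. The fluorescence ratio is summed target-cycle over summed buffer-cycle Cy3 intensity per cluster, averaged per switch-domain sequence, with clusters outside 100-1000 RFU excluded.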
# 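Further: ATP exposure 15 min at 22 °C before imaging.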
row,Sequence,switch fluorescence ratio
1,GTCGTCGAGT,1.04
2,CCTCGGACCT,1.42
3,TGCACTGGCT,1.09
4,GGTAGGGC,1.01
5,AGGACAGTG,1.01
6,AGGCTTATGG,1.13
7,ACGAGTCATT,1.05
8,AGGAATGGG,1.02
9,ACGGTTAATC,1.02
10,TCGGCCGGGC,0.986
11,CTCGATCAGG,1.2
12,CCCGGGCTG,1.02
13,ACATGTCATA,1.04
14,CGAATCGGCC,1.01
15,CTCTTGGCCG,0.936
16,CCTTGCCCTA,1.07
17,CGAGCAGGGT,1.61
18,GTGGTTACAT,0.999
19,GGCGCACCCG,1.01
20,ATCATGGACT,0.984
21,ATCGAAGAAT,1.03
22,TACATTTATG,1.04
23,AGTGCATGG,1.03
24,ATTTTCTCAA,0.995
25,CGGTAGTGGG,1.01
26,GTAAGTCGAC,1.06

row,Sequence,switch fluorescence ratio
1,CTACGTAA,3.55
2,AACTATGGAT,1.03
3,GACTCGTGGG,1.01
4,TGGAACCGCC,1.76
5,ACAGAATACT,1.15
6,GCACGATGGA,1.01
7,ACGTGTCCTG,1.02
8,AAACGGAGAC,1.13
9,GATTACTGCC,1.18
10,TATCAAGTCG,0.976
11,TGCTGGTGTT,1.01
12,TATTCTGAG,1.06
13,CTAGATTATT,1.01
14,TCGTGCCTA,1.02
15,GCTCGTTGAA,1.01
16,AATGTGCCG,0.976
17,ATCTGGCGT,0.999
18,AGACAACGAG,1.02
19,CTCTTAATAG,1.26
20,ATCGCATGCT,1.1
21,ATTGACATTC,1.07
22,ATACACGAGA,1.07
23,CATAAGGCG,0.985
24,CTAAGATGGA,0.987
25,GAAGTCCGTG,1.05
26,TATGGATGGT,0.98

row,Sequence,switch fluorescence ratio
1,ATGCCATGAA,1.01
2,TAGAGAAGGC,0.987
3,TCAGAGATA,0.931
4,TGCCATTTA,1
5,CGGGTGAATG,1.07
6,CACCAAGTAG,1.03
7,TACAGTATGG,1.07
8,CCAGGACGAG,1.01
9,GTGTGACTTT,0.998
10,AACAGGGGCA,1.07
11,TCCTATGAGT,1.03
12,TAAACTTAGC,0.978
13,GGCGGTCCTA,0.992
14,GGATATTTGT,1.03
15,GCGTAGGTTA,1.04
16,AACACTACGC,1.47
17,AGATTATCCT,1.07
18,GACAGAATCT,1.04
19,GTTGACTGCT,0.988
20,ACTGAGGTAG,1.07
21,GCTGCTTGCT,1
22,AGCAAGGATA,1.04
23,CGGTGCAGAA,1.03
24,CTATCCTTCG,1.55
25,GATTGGTAGC,0.999
26,CATTCTGCTG,1.01

row,Sequence,switch fluorescence ratio
1,GGGTTTAAC,1.01
2,AAGGGCTGAG,0.961
3,GCTGCCCAAC,1.11
4,GCGCAAGTGT,1.01
5,AGAACGCAAA,2.24
6,ATGTGTGGTA,0.979
7,GTCAGAAGTT,1.03
8,TACTAATATC,1.06
9,GTCTTTGGTG,1.06
10,CTGACACATG,1.01
11,CTGCCAGAGG,0.986
12,AGGTCTTTTG,0.98
13,CCCGTGAATA,1.41
14,ATCCGCTCGA,1.64
15,TGAACGTCTG,1.02
16,TCTCAGTGGG,0.964
17,GCTGACTGTA,1.12
18,AGGTTTCACA,0.985
19,CTCGATTGGC,0.991
20,GTGCAACGGG,0.967
21,CGCTCGTTA,0.996
22,CGCAGGCTTA,1.1
23,GCATAACTAA,0.997
24,GAAGGCACCA,1.02
25,AGTGCAAAAA,2.75
26,TAGTTCGGGT,1.05

row,Sequence,switch fluorescence ratio
1,GGGGACAA,0.986
2,CCCCCGTTTT,1.24
3,GTGTGAAAAA,0.985
4,CAGTAGATGT,1.03
5,CGTCCGGAGA,1.57
6,TTCGTCTCCG,1.02
7,CTTGCTGAGC,1.01
8,AGGTATAAAA,1.01
9,CCTCGTG,1.04
10,TTTAATTG,1.07
11,GCGGGGATCC,0.959
12,AATAGTTAAG,0.968
13,ACGGCGATGG,1.1
14,ATTCATATAT,1.04
15,AATGGTCCGC,1.17
16,TCAGGGTTCT,0.956
17,GTTGTGCTGT,1.01
18,CTCGCAGGAG,1.56
19,TCGTGGACCT,1.1
20,TCATCCAGAG,1.04
21,TTCCAAATAT,1.01
22,CTTAGTGGGA,1.04
23,TCCGTATGTG,0.97
24,TGGAGGTGAG,0.999
25,ATACCGCTGA,1.26
26,TTGAAGGCG,1.05

row,Sequence,switch fluorescence ratio
1,ACAATTCGAA,1.02
2,GTTGCTCATT,1.07
3,TTTTAGATG,1.02
4,GGTTTTTAGG,0.999
5,CGCATGCTTC,1.69
6,TCTCAATCG,0.992
7,GAACTAAAAG,0.979
8,TCAGGGTGGT,1.02
9,TATTTGAAAC,0.981
10,AGGAGCGGGA,0.932
11,CCTGGTGAGA,1.35
12,CTCGTCACCC,1.05
13,TACCACGTAC,2.02
14,GCAGATATCG,0.978
15,TATCCCGAGT,0.997
16,CCTGCAGTAG,5.33
17,ACTGGGAGTA,1.04
18,GGGTCGGTCA,0.998
19,TACAAGGGGA,1.07
20,CCGTTCAAC,1.75
21,TCTCATAGCC,1.68
22,TTATGCTTG,1.01
23,GGCATTCAGG,1.01
24,GACTATGGCC,0.991
